From PubChem BioAssay AID1347165 (National Center for Advancing Translational Sciences (NCATS), 2019)
Hit rate of the full screen: of about 220,000 compounds, about 5,700 (2.6%) were called active. The shares of active, inactive and inconclusive entries below differ from those in the screen. Calls follow the shape of the dose curve; as a rule, active = well fitted inhibition curve with a large enough effect; inconclusive = small, poorly fitted or top-dose-only effect; inactive = no such curve, though single readings can be large or run the other way. Potencies of inconclusive entries are doubtful fits and often do not repeat.

target: Lysine-specific demethylase 5B (Homo sapiens) (UniProt Q9UGL1); assay: Primary screen for KDM5B Histone Demethylases FDH-coupled qHTS; settings: FDH-coupled NADH fluorescence (FDH is formaldehyde dehydrogenase); activity change, negative = inhibition: at 57.7 µM (top of the series) unless noted; also: nearly all actives have a fitted effect of over 70% in size; as to activity change, negative = inhibition: 0% is about no effect
Procedure, shortened: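 Measured: NADH fluorescence change, 30 min, RT. System: KDM5BΔAP 200 nM final, H3K4me3 peptide, α-KG, Fe(II), ascorbate, NAD⁺ plus FDH, pH 7.5 HEPES. Compounds: titrated, 10 min pre-incubation with enzyme.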
Potency is read from the fitted curve at half-maximal effect; tags tell the direction and shape of the fitted curve.

Sequence of UniProt Q9UGL1 (Q9UGL1 whole entry, looked up): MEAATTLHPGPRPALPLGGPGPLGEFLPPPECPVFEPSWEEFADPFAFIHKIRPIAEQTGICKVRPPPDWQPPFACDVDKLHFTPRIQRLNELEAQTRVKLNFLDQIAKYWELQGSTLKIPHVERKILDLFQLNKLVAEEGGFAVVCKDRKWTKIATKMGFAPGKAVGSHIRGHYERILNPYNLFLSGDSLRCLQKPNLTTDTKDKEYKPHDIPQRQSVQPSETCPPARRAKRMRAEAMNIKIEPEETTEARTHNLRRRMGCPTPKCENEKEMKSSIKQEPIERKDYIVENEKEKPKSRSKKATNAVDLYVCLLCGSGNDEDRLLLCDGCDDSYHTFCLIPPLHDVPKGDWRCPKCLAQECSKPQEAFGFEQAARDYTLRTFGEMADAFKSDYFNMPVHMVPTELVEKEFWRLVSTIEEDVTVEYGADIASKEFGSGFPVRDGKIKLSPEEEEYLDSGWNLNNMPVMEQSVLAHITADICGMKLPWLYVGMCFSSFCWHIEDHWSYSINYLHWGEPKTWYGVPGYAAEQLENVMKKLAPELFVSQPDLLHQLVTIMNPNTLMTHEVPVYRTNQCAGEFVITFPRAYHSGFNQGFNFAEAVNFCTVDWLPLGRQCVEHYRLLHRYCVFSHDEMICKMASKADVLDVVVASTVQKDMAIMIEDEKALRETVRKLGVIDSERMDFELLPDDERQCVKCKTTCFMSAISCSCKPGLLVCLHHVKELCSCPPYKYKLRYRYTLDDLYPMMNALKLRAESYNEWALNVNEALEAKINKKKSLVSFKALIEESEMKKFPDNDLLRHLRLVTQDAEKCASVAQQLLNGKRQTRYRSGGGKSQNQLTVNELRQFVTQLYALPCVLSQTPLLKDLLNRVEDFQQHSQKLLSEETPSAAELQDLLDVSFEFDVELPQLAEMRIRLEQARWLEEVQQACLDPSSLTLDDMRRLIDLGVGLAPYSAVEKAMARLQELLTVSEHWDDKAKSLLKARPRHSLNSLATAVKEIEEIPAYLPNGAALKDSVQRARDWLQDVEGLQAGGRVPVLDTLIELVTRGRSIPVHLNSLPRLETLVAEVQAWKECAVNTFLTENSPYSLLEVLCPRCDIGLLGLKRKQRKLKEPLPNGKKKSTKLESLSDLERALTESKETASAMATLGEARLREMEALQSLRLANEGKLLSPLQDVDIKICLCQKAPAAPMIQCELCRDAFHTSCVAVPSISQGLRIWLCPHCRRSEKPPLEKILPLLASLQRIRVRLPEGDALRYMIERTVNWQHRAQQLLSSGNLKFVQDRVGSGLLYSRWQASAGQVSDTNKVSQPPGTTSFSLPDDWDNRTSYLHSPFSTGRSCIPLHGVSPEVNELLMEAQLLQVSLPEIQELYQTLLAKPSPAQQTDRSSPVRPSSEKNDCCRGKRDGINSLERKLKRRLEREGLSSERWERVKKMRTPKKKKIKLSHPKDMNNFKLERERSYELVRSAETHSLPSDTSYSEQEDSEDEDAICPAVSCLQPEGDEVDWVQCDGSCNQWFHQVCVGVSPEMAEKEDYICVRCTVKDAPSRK

Q: How did the Potency turn out when `Cc1cc(CN2CCC3(CC2)CN(C2CCC2)CC3CO)n(C)n1` (centres undefined) was run?
A: active: 17.8 µM

Q: `CN1[C@@H](CCC(=O)NCc2cccs2)CNC(=O)[C@@H]2[C@H]1CCN2Cc1csnn1` was tested. Which Potency did it give?
A: inconclusive: 25.1 µM [inhibitor, partial curve]

Q: For `COCCN1C(=O)c2ccccc2C(C(=O)Nc2ccc(OC)cc2)C12CCCC2` (centres undefined), which Potency is on record?
A: active: 15.8 µM

Q: For `O=C(CSc1nnc(NC(=O)c2ccccc2)s1)NC1CCCC1`, which Potency is on record?
A: inconclusive: 28.2 µM [inhibitor, single point]

Q: With `CN1CCN(CCCNC(=O)c2ccc(/C=C3\Sc4ccccc4N(Cc4ccc(F)cc4)C3=O)cc2)CC1` as the molecule, how does the Potency read?
A: inconclusive: 31.6 µM [inhibitor, single point]

Q: With `O=C(Nc1ccc(-c2nc3ccccc3o2)cc1)c1ccc2ccccc2c1` as the molecule, how does the “activity change, negative = inhibition” value read?
A: inactive: -15.6%

Q: `COc1ccc(C2c3c(n(C)c4ccccc34)C(=O)N2CC(=O)Nc2cccc(F)c2)cc1` (centres undefined) was tested. Which Potency did it give?
A: inconclusive: 20 µM [inhibitor, partial curve, poor fit]

Q: `Cc1noc(C)c1C(=O)N1CCc2nn(C)c(=O)n2CC1` was tested. Which “activity change, negative = inhibition” value did it give?
A: inactive: -30.8%

Q: How did the “activity change, negative = inhibition” value turn out when `CCNC(=O)N1CCCOCCNC(=O)[C@@H]2CCC[C@@H]21` was run?
A: inactive: -15.6%

Q: `O=c1oc2ccc3ccccc3c2cc1-c1nnc(Nc2ccc(F)cc2)s1` was tested. Which activity change, negative = inhibition did it give?
A: inconclusive: -38.5% [inhibitor]

Q: `CNC(=O)N1C[C@@H](CN(C)C)[C@H](NS(=O)(=O)c2c(C)noc2C)C1` was tested. Which Potency did it give?
A: inconclusive: 28.2 µM [inhibitor, partial curve]

Q: Which Potency does the source give for `O=C(NCCc1ccncc1)C1CN(Cc2ccncc2)CC12CCOCC2` (centres undefined) here?
A: inconclusive: 28.2 µM [inhibitor, single point]

Q: Which Potency does the source give for `O=C(N1CCN(c2ccccn2)CC1)C1(c2ccc(Cl)cc2)CCOCC1` here?
A: active: 79.4 µM

Q: Which “activity change, negative = inhibition” value does the source give for `CC(C)c1nnc(NC(=O)Cn2ccc3ccc(F)cc32)s1` here?
A: inactive: 12.6%

Q: With `CCCCCCCCOc1ccc(/C=C(/C#N)c2ccccn2)cc1` as the molecule, how does the “activity change, negative = inhibition” value read?
A: inactive: -17.8%

Q: How did the Potency turn out when `Cc1ccc2c(Cl)cc(Cl)c(OCc3nccn3C(F)F)c2n1` was run?
A: inconclusive: 22.4 µM [inhibitor, partial curve, poor fit]

Q: `COc1cccc(CNc2cc(C)nc3nc(-c4ccc(C)cc4)nn23)c1` was tested. Which Potency did it give?
A: inconclusive: 5.62 µM [inhibitor, partial curve, poor fit]

Q: How did the “activity change, negative = inhibition” value turn out when `CCCCNC(C(=O)c1c[nH]c2c(CC)cccc12)c1ccccc1` (centres undefined) was run?
A: inactive: -14.5%

Q: Which “activity change, negative = inhibition” value does the source give for `Cc1ccc(C(C)NC(=O)CSc2nc(CN3CCOCC3)nc3ccccc23)cc1C` (centres undefined) here?
A: inactive: 11.1%

Q: Which Potency does the source give for `COc1ccc(C(C)=O)cc1CN1CCCCCCC1` here?
A: inconclusive: 12.6 µM [inhibitor, partial curve, poor fit]

Q: With `c1ccc(-c2ccc(CNCCCn3ccnc3)cc2)cc1` as the molecule, how does the “activity change, negative = inhibition” value read?
A: inactive: 25.8%

Q: For `O=C(CCl)N1CCN(CC(=O)N2CCCC2)CC1`, which Potency is on record?
A: inconclusive: 39.8 µM [inhibitor, single point]

Q: For `Cc1cc(N2CCC(NC(=O)c3cccc(N(C)C)c3)C2=O)ccc1F` (centres undefined), which Potency is on record?
A: inconclusive: 39.8 µM [inhibitor, single point]

Q: With `O=C(COc1ccc2ccccc2c1)NC1CC(=O)N(c2cccc(F)c2)C1` (centres undefined) as the molecule, how does the Potency read?
A: inconclusive: 39.8 µM [inhibitor, single point]

Q: Which Potency does the source give for `CCOc1ccc(N2C(=O)c3ccccc3NC23CCSC3)cc1` (centres undefined) here?
A: inconclusive: 25.1 µM [inhibitor, partial curve, poor fit]

Q: `Cc1ccc(S(=O)(=O)Nc2nc3n(n2)C(c2ccc(F)cc2)C=C(c2ccccc2)N3)cc1` (centres undefined) was tested. Which Potency did it give?
A: inconclusive: 28.2 µM [inhibitor, partial curve, poor fit]

Q: `Cc1nccn1CC(=O)N1CCCn2cc(-c3cccc(C#N)c3)nc21` was tested. Which Potency did it give?
A: inconclusive: 14.1 µM [inhibitor, single point]

Q: Which “activity change, negative = inhibition” value does the source give for `Cc1ccc(CN2CCC(CNS(=O)(=O)c3csc(C(N)=O)c3)CC2)cc1` here?
A: inactive: -12.2%

Q: `Cc1cc(C)n(-c2nnc(Nc3ccc(C)c(Cl)c3)c3ccccc23)n1` was tested. Which Potency did it give?
A: inconclusive: 31.6 µM [inhibitor, partial curve, poor fit]

Q: With `Cc1ccc(NC(=O)CN(C)Cc2cc(=O)oc3c(C)c(O)ccc23)cc1` as the molecule, how does the “activity change, negative = inhibition” value read?
A: inactive: 1.83%

Q: Which Potency does the source give for `O=C(c1cccn1-c1nnc(N2CCCC2)s1)N1CCN(c2ccc(Cl)cc2)CC1` here?
A: inconclusive: 1.58 µM [inhibitor, partial curve, poor fit]

Q: Which Potency does the source give for `COc1cc(C2Nc3c(C)cc(C)cc3-c3cc(C)nn32)cc(OC)c1O` (centres undefined) here?
A: inconclusive: 22.4 µM [inhibitor, partial curve, poor fit]

Q: How did the Potency turn out when `Cc1cc(C)nc(NC(c2ccc(C(C)C)cc2)c2cc(C)sc2NC(=O)c2ccco2)n1` (centres undefined) was run?
A: inconclusive: 39.8 µM [inhibitor, partial curve, poor fit]

Q: With `C=CCOc1ccc(NC(=O)C(=O)c2c(C)[nH]c3ccccc23)cc1` as the molecule, how does the Potency read?
A: inconclusive: 39.8 µM [inhibitor, single point]

Q: With `CCOCC1(C)COc2ccc(C(=O)Nc3ccc(Cl)cc3)cc2N1` (centres undefined) as the molecule, how does the Potency read?
A: active: 28.2 µM

Q: With `Cc1cccc(NCc2ccc(Br)cc2)n1` as the molecule, how does the Potency read?
A: inconclusive: 25.1 µM [inhibitor, partial curve, poor fit]

Q: `COc1ccc(-c2cc3nc(C)c(CCC(=O)NC4CCCCC4)c(C)n3n2)c(OC)c1` was tested. Which Potency did it give?
A: inconclusive: 3.16 µM [inhibitor, partial curve, poor fit]

Q: For `COc1cc(/C=C(\C#N)c2nc3ccc(C)cc3[nH]2)ccc1OC(C)=O`, which Potency is on record?
A: inconclusive: 20 µM [inhibitor, single point]

Q: For `COc1ccccc1NC(=O)c1c(C)cc(C)nc1SCC(=O)c1ccc(Cl)cc1`, which Potency is on record?
A: inconclusive: 35.5 µM [inhibitor, single point]

Q: For `Cc1cc2oc(=O)cc(CN3CCN(S(=O)(=O)c4ccc5c(c4)OCCO5)CC3)c2cc1C(C)C`, which “activity change, negative = inhibition” value is on record?
A: inactive: 9.68%

Q: How did the “activity change, negative = inhibition” value turn out when `Cc1cc(OCC(=O)N(Cc2ccc(N(C)C)cc2)CC2CCCO2)ccc1Cl` (centres undefined) was run?
A: inactive: -9.24%

Q: How did the Potency turn out when `CCCNC(=O)CCc1c(C)nc2c(c(C)nn2-c2ccc(C)cc2)c1C` was run?
A: inconclusive: 22.4 µM [inhibitor, partial curve, poor fit]

Q: With `CC(Sc1cc(C(=O)NC2CC2)c2ccccc2n1)C(=O)N1CCOCC1` (centres undefined) as the molecule, how does the “activity change, negative = inhibition” value read?
A: inactive: -23.7%

Q: With `COCC1CCN(c2ccc(-c3nc(CCCc4ccccc4)no3)cn2)C1` (centres undefined) as the molecule, how does the Potency read?
A: active: 35.5 µM
